Experimental data taken from PubChem BioAssay (NCI).
Values joined by “and” are separate entries in the source; they are usually repeats but may differ in a detail not shown here. Equal entries are not always repeated.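 Five concentrations, 48 hours, 96-well plates. GI50 = concentration required for 50% inhibition of growth. TGI: total growth inhibition.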 Peptide text beside a SMILES is read from it. * marks the point of attachment. X33 = O=C(c1ccc(-c2ccc(Cl)cc2Cl)o1)*

Test system: NCI-H322M lung
Test: NCI tumour cell line growth inhibition, 48 h

Point of comparison: `O=C1c2ccccc2C(=O)c2c1oc1c2c(=O)[nH]c2ccc(Cl)cc21`, TGI 1.43 µM. Against it:
- CC(C)=NOC(=O)OC[C@H]1O[C@@H](n2cnc3c(N)ncnc32)C(O)C1O (some centres not stated) — higher, > 100 µM
- COc1cc(/C=C2\NC(=O)C3Cc4c(OC)c(C)c(OC)c(OC)c4C2N3C)c(OC)c(C)c1OC (configuration not stated) — higher, > 100 µM
- C=CCCCN1CCCCC1=S — higher, > 100 µM
- CN1N=C2c3ccccc3OC(c3ccccc3)[C@H]2C1c1ccccc1 (some centres not stated) — higher, > 100 µM
- N#Cc1ccccc1NC(=O)C(=O)C(C(=O)c1ccncc1)C1OC(=O)c2ccccc21 (configuration not stated) — higher, > 100 µM
- CCCCC(=O)c1c(O)ccc2c(C)cc(=O)oc12 — higher, > 100 µM
- CCOC(=O)[C@@]1(C(C)=O)CC(C)=C(C)C[S@]1=O — higher, > 100 µM
- CC12C3CC4C5CC(C(C53)[C@@H]1NCc1ccccc1)C42 (some centres not stated) — higher, > 100 µM
- CC[C@H]1CCC/C=C/[C@@H]2C[C@H](O)C[C@H]2[C@H](O)/C=C/C(=O)O1 — higher, > 100 µM
- CCOC(=O)c1c(-c2ccc(OC)c(O)c2)c(C#N)c(=S)n(C2OC(COC(C)=O)C(OC(C)=O)C(OC(C)=O)C2OC(C)=O)c1-c1ccccc1 (configuration not stated) — higher, > 100 µM
- CCOC(=O)C(NC(=O)c1cccc(Cl)c1)(Nc1ccc(S(=O)(=O)Nc2cc(C)nc(C)n2)cc1)C(F)(F)F (configuration not stated) — higher, > 100 µM
- O=C1NC2(CCCC2)C2CCCCC12O (configuration not stated) — higher, > 100 µM
- CC(=O)NCc1c(C(N)=O)ncn1Cc1ccccc1 — higher, > 100 µM
- O=C1NC(=NCc2ccc(F)cc2)N/C1=C\c1ccccc1Cl — 25-fold higher, 36.2 µM
- CCN1C(=O)N(CC)C2C1NN=c1s/c(=C\c3ccc(C(F)(F)F)cc3)c(=O)n12 (configuration not stated) — higher, > 46.1 µM
- CO/C=C(\Br)c1ccc2c(c1)OCO2 — higher, > 100 µM
- CCOC(=O)/C(=C\c1cn(C(C)=O)c2ccccc12)P(C)(=O)OCC (configuration not stated) — higher, > 100 µM
- Nc1ccn(CCOC(c2ccccc2)P(=O)(O)O)c(=O)n1 (configuration not stated) — higher, > 100 µM
- O=C1c2cn[nH]c2N=C(Nc2ccccc2)C1N=Cc1ccc([N+](=O)[O-])cc1 (configuration not stated) — higher, > 10 µM
- O=S(=O)(O)n1ccnc1 (tested in a mixture with another compound) — higher, > 100 µM
- Cc1ccc2[nH]c(O)c(N=Nc3ccccc3[N+](=O)[O-])c2c1 — higher, > 100 µM
- CC[O-].CC[O-].O=C([CH-]C(=O)c1ccccc1)CCCCCCC(=O)[CH-]C(=O)c1ccccc1.[Ti+4] — higher, > 100 µM
- CC1SC2=NC3=C(c4ccccc4C3=O)C(c3ccccc3Cl)N2C1=O (configuration not stated) — higher, > 100 µM
- Cc1cc(C#N)c(Nc2ccc(F)cc2[N+](=O)[O-])s1 — higher, > 100 µM
- Cc1ccc(-c2nc(/C=N/Nc3cc(C)nc4ccc(Br)cc34)c(C)o2)cc1 — 2.7-fold higher, 3.92 µM
- CNS(=O)(=O)NNS(=O)(=O)c1ccc(F)cc1 — higher, > 100 µM
- COc1ccc2c(=O)c3c([nH]c2c1)OCC3=O — higher, > 100 µM
- O=S(=O)(O)c1cc(S(=O)(=O)O)c2c(N=Nc3ccc(S(=O)(=O)O)c4ccccc34)c(O)ccc2c1 — higher, > 100 µM
- C=CCc1cccc2cc(C(=O)Nc3ccc(C)cc3)c(=N)oc12 — higher, > 100 µM
- [Co].[O-]c1cccnc1C=Nc1ccccc1.[OH3+] — higher, > 100 µM
- CCN(CC)CCn1c(=O)c2cc(OC)c(OC)cc2c2ccc3cc4c(cc3c21)OCO4 — 16-fold higher, 23 µM
- C1=CCC[C@@H]2CN3CCCC/C=C\CCCC[C@H]4C[C@H](CN(CCCCCCCC1)C4)[C@H]2CC3 — 14-fold higher, 19.4 µM
- COC(=O)C(CC(C)C)NC(=O)C(Cc1ccccc1)NC(=O)C1CCCN1C(=O)C(CO)NC(=O)c1ccc(-c2ccc(Cl)cc2Cl)o1 (configuration not stated) (X33-SPFL-OMe; configuration not given here) — 27-fold higher, 38.2 µM
- [C-]#[N+]C(=C\c1ccc(O)cc1)/C(=C/c1ccc(O)cc1)[N+]#[C-] — 9.4-fold higher, 13.4 µM
- CC(C)=Cc1cccc2[nH]c(O)c(N=Nc3ccc(S(N)(=O)=O)cc3)c12 — higher, > 25 µM
- COn1oc(=O)c2ccccc21 — higher, > 100 µM
- CCOC(=O)C(NC(=O)c1ccccc1)(c1ccc(S(=O)(=O)Nc2onc(C)c2C)cc1)C(F)(F)F (configuration not stated) — higher, > 100 µM
- CSc1nc(-c2ccccc2)nc(C(C#N)C#N)n1 — higher, > 100 µM
- CCOC(=O)[C@@H](NC(=O)OC(C)(C)C)[C@@H](O)C(=O)OCC — higher, > 100 µM
- O=C(c1ccccc1)C1OC1C(=O)c1ccccc1 (configuration not stated) — higher, > 100 µM
- C[N+](C)(C)C1CC([N+](C)(C)C)C2c3ccccc3C21 (configuration not stated) — higher, > 100 µM
- CN(C)CCN(C)C(=O)c1cccc2cccc(C(=O)O)c12 — higher, > 100 µM
- COc1ccc([Se][Se]c2ccc(OC)cc2OC)c(OC)c1 — higher, > 100 µM
- Cc1oc2nc(N(C)C)nc(NN)c2c1C — higher, > 100 µM
- CCc1[nH]nc(C(N)=O)c1N=NN(C)C — higher, > 100 µM
- Cc1cc(=O)oc2cc3oc(N(C)c4ccccc4)nc(=O)c3cc12 — higher, > 100 µM
- CCn1c(SCC(=O)Nc2cc(C(F)(F)F)ccc2Cl)nc2ccccc2c1=O — higher, > 100 µM
- Nc1nc(SCCNC(=O)CCc2ccc(O)c(I)c2)nc2c1ncn2C1OC(CO)C(O)C1O (configuration not stated) — higher, > 100 µM

Point of comparison: `CC[C@H]1CCC/C=C/[C@@H]2C[C@H](O)C[C@H]2[C@H](O)/C=C/C(=O)O1`, GI50 61.8 nM. Against it:
- CCN1C(=O)N(CC)C2C1NN=c1s/c(=C\c3ccc(C(F)(F)F)cc3)c(=O)n12 (configuration not stated) — 14-fold higher, 840 nM
- CC[O-].CC[O-].O=C([CH-]C(=O)c1ccccc1)CCCCCCC(=O)[CH-]C(=O)c1ccccc1.[Ti+4] — higher, > 100000 nM
- Cc1ccc(-c2nc(/C=N/Nc3cc(C)nc4ccc(Br)cc34)c(C)o2)cc1 — 31-fold higher, 1930 nM
- O=C1c2ccccc2C(=O)c2c1oc1c2c(=O)[nH]c2ccc(Cl)cc21 — 5.2-fold higher, 324 nM
- [Co].[O-]c1cccnc1C=Nc1ccccc1.[OH3+] — higher, > 100000 nM
- CCN(CC)CCn1c(=O)c2cc(OC)c(OC)cc2c2ccc3cc4c(cc3c21)OCO4 — 6.5-fold higher, 400 nM
- CC(C)=Cc1cccc2[nH]c(O)c(N=Nc3ccc(S(N)(=O)=O)cc3)c12 — higher, > 15900 nM
- O=C(c1ccccc1)C1OC1C(=O)c1ccccc1 (configuration not stated) — 280-fold higher, 17100 nM
- CCn1c(SCC(=O)Nc2cc(C(F)(F)F)ccc2Cl)nc2ccccc2c1=O — 650-fold higher, 39900 nM
- CC(C)CCCCCCCCCCCCC(=O)NCC(=O)NC1C(C)OC(Nc2ncnc3nc[nH]c23)C(O)C1O (configuration not stated) — 5.5-fold lower, 11.2 nM

With `O=C(Nc1cn[nH]c1-c1nc2ccc(CN3CCOCC3)cc2[nH]1)NC1CC1` the GI50 was 2780 nM and > 10000 nM.

With `O=C(Nc1cn[nH]c1-c1nc2ccc(CN3CCOCC3)cc2[nH]1)NC1CC1` the TGI was 14.5 µM and > 10 µM.
